In paper PMC12136788:
The other results are listed elsewhere or left out.

T1: UNK ZnF1-6 (called full-length) (human, UniProt Q9C0B0 30-357)
T1 sequence: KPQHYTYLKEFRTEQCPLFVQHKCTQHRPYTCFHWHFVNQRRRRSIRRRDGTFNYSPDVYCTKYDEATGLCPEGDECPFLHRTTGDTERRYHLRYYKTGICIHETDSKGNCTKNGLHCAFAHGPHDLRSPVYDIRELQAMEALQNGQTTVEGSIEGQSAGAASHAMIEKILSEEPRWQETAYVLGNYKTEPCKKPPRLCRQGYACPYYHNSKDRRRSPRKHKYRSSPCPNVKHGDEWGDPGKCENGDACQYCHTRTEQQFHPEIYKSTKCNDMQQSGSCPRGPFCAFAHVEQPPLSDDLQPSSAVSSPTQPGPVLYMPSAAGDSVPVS

B1: chr1:225789428:225789553:+|3pUTR|ENSG00000143742|unk|FALSE|unique (ssRNA)
RNA: GGGAGUUCUACAGUCCGACGAUCUUAGAGAAAGUGUUGGGACAGAAAGUACUUUAUGUAACUAAGUGGGCUGUUCAGAAGCUUAGAGGUCAUUUUUUGUAAUUUUCUUUUUAAUUACUUUAGAGAGCUAGGGAUGCAAAUGUUCAACAGAGGAUUGAGCAUCA
B2: chr11:104891169:104891404:-|CDS|ENSG00000204403|control|control|control (ssRNA)
RNA: GGGAGUUCUACAGUCCGACGAUCUUUGCUGCUCACCCAGAGCACCAGUCCUCAGACAGCACAUUCCUGGUGUUUAUGUCACAUAGCAUCCUGAAUGGAAUCUGUGGGACCAAGCACUGGGAUCAAGAGCCAGAUGUUCUUCACCAACAGAGGAUUGAGCAUCA
B3: ENSG00000107863:be:win_501|CDS|ENSG00000107863|bound_else_gene|NA|bound_elsewhere_windowed (ssRNA)
RNA: GGGAGUUCUACAGUCCGACGAUCGUUUACAAAGGAUGUCACAGCACUGGCAUAUUCUCAAGAUGCCUACCUGAAAGGCAACGAAGCUUAUAGCGGCAAUGCCCGCAAUAUACCUGAACCUCCACCAAUCUGCUAUCCCUGGCUCAACAGAGGAUUGAGCAUCA
B4: ENSG00000136451:be:win_3251|3pUTR|ENSG00000136451|bound_else_gene|NA|bound_elsewhere_windowed (ssRNA)
RNA: GGGAGUUCUACAGUCCGACGAUCCUUAGUGUAAAAUAAUUUUAUAAAUGAUCUUUUGUACUUUAGGACAUUAAAUUGUACAACUUUUGUAUAUAUAAAAGCUUAGGAACUUUCUGUUUAGCAGGAAGGCAACACAUUCCUACACAACAGAGGAUUGAGCAUCA
B5: chr17:3662948:3663056:-|3pUTR|ENSG00000213977|unk|FALSE|unique (ssRNA)
RNA: GGGAGUUCUACAGUCCGACGAUCAGUUUGAUACAAAAUGUUUUUAUCGUACUCUUUGGAGAUGCCCAUUCUACUUUUGAAUUUAGCUUUUACUAAUUCGCAUCUGGAAGCUCAGCAAGUGCACAAGCCUUACUUUGGUUACCGCAACAGAGGAUUGAGCAUCA
B6: chr10:128098031:128098192:-|3pUTR|ENSG00000148773|msi1|FALSE|unique (ssRNA)
RNA: GGGAGUUCUACAGUCCGACGAUCCAUCUUCAUUUACUUUCCACUUUGCCCCCUGUCCUCUCUGUGUUCCCCAAAUCAGAGAAUAGCCCGCCAUCCCCCAGGUCACCUGUCUGGAUUCCUCCCCAUUCACCCACCUUGCCAGGUCAACAGAGGAUUGAGCAUCA

Each binder was assayed against T1, UNK ZnF1-6 (called full-length) (assay: nsRBNS (natural sequence RNA bind-n-seq); RBNS binding buffer (assumed for nsRBNS): 25 mM Tris pH 7.5, 150 mM KCl, 3 mM MgCl2, 0.01% Triton X-100, 500 ug/ml BSA, 20 U/ml SUPERase-In, 4 C; UNK is unkempt and MSI1 is Musashi-1; names of the RNAs are library labels; protein concentration not given here; high values mean tight binding).

Q: Which binding signal does the source give for B1 here?
A: 1.53 enrichment R

Q: How did the binding signal turn out when B2 was run?
A: 0.383 enrichment R

Q: For B3, which binding signal is on record?
A: 0.541 enrichment R

Q: How did the binding signal turn out when B4 was run?
A: 6.05 enrichment R

Q: How did the binding signal turn out when B5 was run?
A: 2.12 enrichment R

Q: With B6 as the binder, how does the binding signal read?
A: 1.09 enrichment R
